In assay [1] the target is T1, cyLAG-3-Fc (extracellular domain of cynomolgus LAG-3 fused via Factor Xa cleavage site and (G4S)3-linker to … (cynomolgus)).
T1 construct: also called recombinant cynomolgus LAG-3
Briefly: SPR Biacore, LAG-3-Fc captured by anti-human IgG Fc, mutein as analyte. Here is the method:
(§1) The anti-human IgG Fc antibody (GE Healthcare) was immobilized on a CM5 sensor chip using standard amine chemistry: the carboxyl groups on the chip were activated using 1-ethyl-3-(3-dimethylaminopropyl)-carbodiimide (EDC) and N-hydroxysuccinimide (NHS). […] Residual non-reacted NHS-esters were blocked by passing a solution of 1M ethanolamine across the surface. The reference channel was treated in an analogous manner.
(§2) All measurements were performed at 25° C. […] Prior to the protein measurements three startup cycles were performed for conditioning purposes. Data were evaluated with Biacore T200 Evaluation software (V 2.0). Double referencing was used and the 1:1 binding model was used to fit the raw data.
(In SPR one partner is held on a chip, and binding of the other changes the refractive index at the surface.)

Assay [2] addresses T2, huLAG-3-Fc (human LAG-3 extracellular domain fused to human IgG1 Fc fragment), R&D Systems (human, UniProt P18627 23-450).
T2 construct: extracellular domain; Bought from R&D Systems; also called human LAG-3-Fc fusion; recombinant human LAG-3-Fc; not shown: human IgG1 Fc fragment
T2 sequence (looked up): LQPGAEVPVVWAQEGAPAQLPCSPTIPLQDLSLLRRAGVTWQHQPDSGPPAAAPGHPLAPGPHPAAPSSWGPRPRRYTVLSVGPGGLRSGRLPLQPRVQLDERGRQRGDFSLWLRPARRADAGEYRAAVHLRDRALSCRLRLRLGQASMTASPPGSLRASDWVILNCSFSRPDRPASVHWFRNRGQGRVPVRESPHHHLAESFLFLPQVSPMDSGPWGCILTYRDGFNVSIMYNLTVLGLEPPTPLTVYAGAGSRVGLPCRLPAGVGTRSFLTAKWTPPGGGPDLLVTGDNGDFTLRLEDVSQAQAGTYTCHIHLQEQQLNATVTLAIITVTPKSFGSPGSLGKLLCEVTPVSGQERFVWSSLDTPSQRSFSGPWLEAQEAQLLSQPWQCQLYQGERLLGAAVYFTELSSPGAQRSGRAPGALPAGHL
The assay is described as above. On the procedure:
as §1, §2

Assay [3] addresses T2, huLAG-3-Fc (human LAG-3 extracellular …). Briefly: competition FACS: inhibition of 3 nM huLAG-3-Fc binding to MHC class II on A375 cells. Here is the method:
Cells were washed twice in ice-cold PBS, re-suspended in PBS-FCS and incubated 30 min on ice with phycoerythrin labelled anti-human IgG Fc antibody (Jackson Immunologics).

The target in assay [4] is T3, cynomolgus LAG-3 on CHO cells (cynomolgus).
T3 construct: whole, on cells; also called CHO::cyLAG-3; CHO cells transfected with cynomolgus LAG-3
Briefly: FACS on CHO cells transfected with cynomolgus LAG-3.

For assay [5], the target named is T4, human LAG-3 (huLAG-3) on cells (human, UniProt P18627 23-525).
T4 construct: whole, on cells; also called CHO-huLAG-3; CHO::huLAG-3
T4 sequence (looked up): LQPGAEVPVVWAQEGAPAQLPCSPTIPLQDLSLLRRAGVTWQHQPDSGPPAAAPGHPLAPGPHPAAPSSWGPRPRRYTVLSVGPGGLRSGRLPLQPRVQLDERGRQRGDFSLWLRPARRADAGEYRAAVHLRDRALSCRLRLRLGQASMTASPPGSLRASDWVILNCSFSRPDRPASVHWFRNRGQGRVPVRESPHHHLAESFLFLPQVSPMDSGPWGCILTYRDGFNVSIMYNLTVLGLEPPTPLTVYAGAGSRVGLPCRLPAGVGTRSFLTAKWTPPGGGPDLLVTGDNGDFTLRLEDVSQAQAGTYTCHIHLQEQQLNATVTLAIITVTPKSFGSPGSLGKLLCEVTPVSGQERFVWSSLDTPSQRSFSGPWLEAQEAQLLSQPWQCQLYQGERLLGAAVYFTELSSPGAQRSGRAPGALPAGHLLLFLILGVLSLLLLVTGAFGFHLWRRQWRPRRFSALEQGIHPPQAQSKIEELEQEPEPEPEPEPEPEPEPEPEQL
Briefly: FACS on CHO cells transfected with huLAG-3.

Broadly, the Kd is the concentration at which binding is half-saturated. Low values mean a tighter complex, high ones a looser complex. For orientation: koff means the rate constant with which the complex falls apart. One may read the kon as a measure of how fast the partners come together. A lower kon goes with slower complex formation. For orientation: IC50 means the point on the concentration scale where inhibition reaches its midpoint. A high value points to weaker potency. What is called EC50 is the concentration giving half of the maximal effect. Higher therefore signals a need for much substance.

B1: lipocalin mutein SEQ ID NO: 22 (designed binder)
chain: ASDEEIQDVSGTWYLKAMTVDFVCLNDYPESVTPMTLTTLEGGNLEAKVTMQIWGEPQEVKAVLEKTDEPGKYTADGGKHVAYIIRSHVKDHYIFYSEGYCTGYPVPGVWLVGRDPKNNLEALEDFEKAAGARGLSTESILIPRQSETSSPGSAWSHPQFEK
notes: Human tear lipocalin mutein; also called optimized LAG-3 specific lipocalin mutein
In assay [1], B1 showed a Kd of 9.3 nM, a koff of 0.000263 s⁻¹ and a kon of 28300 M⁻¹ s⁻¹. In assay [2], this molecule displayed a dissociation constant (Kd) of 8.78 nM, a koff of 0.000263 s⁻¹ and a kon of 29900 M⁻¹ s⁻¹.

B2: lipocalin mutein SEQ ID NO: 20 (designed binder)
chain: ASDEEIQDVPGTWYLKAMTVSEEDPEMTLESVTPMTLTTLEGGNLEASVTALIDGRCQEVKNVLEKTDEPGKYTEDGGKHVDYIIRSHVKDHYIFYFEGEGHGTPGRMVALVGRDPTNNLEALEDFEKAAGARGLSTESILIPRQSETCSPGSAWSHPQFEK
notes: as for B1
In the case of B2, the IC50 in assay [3] amounted to 3.2 nM. In assay [1], this molecule registered a dissociation constant Kd of 18.5 nM, a koff of 0.000914 s⁻¹ and a kon of 49500 M⁻¹ s⁻¹. In assay [2], the affinity, expressed as Kd, was 14.7 nM; the koff was determined as 0.000932 s⁻¹; the kon is 63400 M⁻¹ s⁻¹.

B3: lipocalin mutein SEQ ID NO: 19 (designed binder)
chain: ASDEEIQDVPGTWYLKAMTVSDEDPEMTLESVTPMTLTTLEGGNLEASVTALIDGRCQEVKNVLEKTDEPGKYTEDGGKHVDYIIRSHVKDHYIFYFEGEGQGTPGRMVALVGRDPTNNLEALEDFEKAAGARGLSTESILIPRQSETCSPGSAWSHPQFEK
notes: as for B1
In assay [3], B3 had an IC50 of 3.4 nM. In assay [1], this molecule came in with a Kd of 14 nM, a koff of 0.000755 s⁻¹ and a kon of 53800 M⁻¹ s⁻¹. In assay [2], this molecule came in with a Kd of 11.3 nM, a koff of 0.000724 s⁻¹ and a kon of 64200 M⁻¹ s⁻¹.

B4: lipocalin mutein SEQ ID NO: 21 (designed binder)
chain: ASDEEIQDVPGTWYLKAMTVSGEDPEMMLESVTPMTLTTLEGGNLEARVTVLIDGRCQEVKNVLEKTDEPGKYTEDGGKHVDYIIRSHVKDHYIFYFEGEGQGTPGRMVALVGRDPTNNLEALEDFEKAAGARGLSTESILIPRQSETCSPGSAWSHPQFEK
notes: as for B1
For the molecule B4, the IC50 in assay [3] worked out at 1.5 nM. In assay [1], this molecule returned a Kd of 11 nM, a koff of 0.00104 s⁻¹ and a kon of 94900 M⁻¹ s⁻¹. Besides, in assay [2], the Kd stood at 7.09 nM, the koff is 0.000725 s⁻¹ and the kon came out at 102000 M⁻¹ s⁻¹.

B5: lipocalin mutein SEQ ID NO: 18 (designed binder)
chain: ASDEEIQDVPGTWYLKAMTVSAEDPELVLESVTPMTLTTLEGGNLEASVTALIDGRCQEVKNVLEKTDEPGKYTEDGGKHVDYIIRSHVKDHYIFYFEGEGHGTPARTVALVGRDPTNNLEALEDFEKAAGARGLSTESILIPRQSETCSPGSAWSHPQFEK
notes: as for B1
In assay [1], B5 displayed a Kd of 159 nM, a koff of 0.00316 s⁻¹ and a kon of 19800 M⁻¹ s⁻¹. Moreover, in assay [2], the Kd is 103 nM, the koff was determined as 0.00212 s⁻¹ and the kon was determined as 20600 M⁻¹ s⁻¹.

B6: lipocalin mutein SEQ ID NO: 17 (designed binder)
chain: ASDEEIQDVPGTWYLKAMTVSGEDPELWLESVTPMTLTTLEGGNLEASVTALIDGRCQEVKNVLEKTDEPGKYTEDGGKHVDYIIRSHVKDHYIFYFEGEGYGTPGRMVALVGRDPTNNLEALEDFEKAAGARGLSTESILIPRQSETCSPGSAWSHPQFEK
notes: as for B1
B6 had an IC50 in assay [3] of 2.8 nM. In addition, in assay [1], the Kd amounted to 23.2 nM, the koff came out at 0.000866 s⁻¹ and the kon turned out to be 37300 M⁻¹ s⁻¹. In assay [2], this molecule yielded a Kd of 14.9 nM, a koff of 0.000612 s⁻¹ and a kon of 41000 M⁻¹ s⁻¹.

B7: lipocalin mutein SEQ ID NO: 11 (designed binder)
chain: ASDEEIQDVSGTWYLKAMTVDSDCFWIDDVSVTPMTLTTLEGGNLEAKVTMDIFGFWQEVKAVLEKTDEPGKYTADGGKHVAYIIRSHVKDHYIFYSEGECAGYPVPGVWLVGRDPKNNLEALEDFEKAAGARGLSTESILIPRQSETSSPGSAWSHPQFEK
notes: as for B1
In assay [4], B7 showed an EC50 of 19.9 nM. In assay [5], this molecule showed an EC50 of 0.37 nM. The IC50 in assay [3] came to 1.1 nM. Besides, in assay [1], binding was characterised by a dissociation constant (Kd) of 26.1 nM, the koff came out at 0.108 s⁻¹ and the kon is 4.16e+06 M⁻¹ s⁻¹. In assay [2], this molecule registered a Kd of 0.56 nM, a koff of 0.00199 s⁻¹ and a kon of 3.52e+06 M⁻¹ s⁻¹.

B8: lipocalin mutein SEQ ID NO: 13 (designed binder)
chain: ASDEEIQDVSGTWYLKAMTVDSDCFWIEEWSATPMTLTTLEGGDLEAKVTMDIFGFWQEVKAVLEKTDEPGKYTADGGKHAAYIIRSHVKDHYIFYSEGECAGFPVPGVWLVGRDPKNNLEALEDFEKAAGARGLGTESILIPRQSETSSPGSAWSHPQFEK
notes: as for B1
Take B8: in assay [4], the midpoint of the response, the EC50, lay at 26.1 nM. The same molecule yielded an EC50 in assay [5] of 0.26 nM. Also, the IC50 in assay [3] was 1.6 nM. In assay [1], this molecule had a Kd of 124 nM, a koff of 0.103 s⁻¹ and a kon of 831000 M⁻¹ s⁻¹. Moreover, in assay [2], the Kd worked out at 0.49 nM, the koff stood at 0.000845 s⁻¹ and the kon worked out at 1.73e+06 M⁻¹ s⁻¹.

B9: lipocalin mutein SEQ ID NO: 16 (designed binder)
chain: ASDEEIQDVSGTWYLKAMTVDSDCFWVDEVSVTPMTLTTLEGGNLEAKVTMDIFGFWQEVKAVLEKTDEPGKYTADGGKHVAYIIRSHVKDHYIFYSEGECAGFPVPGVWLVGRDPKNNLEALEDFEKAAGARGLSTESILIPRQSETSSPGSAWSHPQFEK
notes: as for B1
With B9, it took 32.8 nM to reach a half-maximal effect in assay [4] (EC50). Further, it took 0.36 nM to reach a half-maximal effect in assay [5] (EC50). This molecule also had a half-inhibitory concentration (IC50) in assay [3] of 4.1 nM. Also, in assay [1], the Kd was 28.1 nM, the koff turned out to be 0.0502 s⁻¹ and the kon worked out at 1.79e+06 M⁻¹ s⁻¹. Moreover, in assay [2], the Kd came out at 0.97 nM, the koff is 0.00238 s⁻¹ and the on-rate constant (kon) was determined as 2.45e+06 M⁻¹ s⁻¹.

B10: lipocalin mutein SEQ ID NO: 15 (designed binder)
chain: ASDEEIQDVSGTWYLKAMTVDSDCFWIEEWSATPMTLTTLEGGNLEAEATMDIFGFWQEVKAVLEKTDEPGKYTADGGKHVAYIIRSHVKDHYIFYSEGECAGFPVPGVWLVGRDPKNNLEALEDFEKAAGARGLSTESILIPRQSETSSPGSAWSHPQFEK
notes: as for B1
In the case of B10, the EC50 in assay [4] is 10.4 nM. Also, in assay [5], a half-maximal effect (EC50) was put at 0.54 nM. Further, the IC50 in assay [3] came to 2.1 nM. In assay [1], this molecule came in with a Kd of 20.3 nM, a koff of 0.129 s⁻¹ and an on-rate constant (kon) of 6.37e+06 M⁻¹ s⁻¹. Besides, in assay [2], the Kd came out at 0.5 nM, the koff turned out to be 0.00123 s⁻¹ and the kon was 2.48e+06 M⁻¹ s⁻¹.

B11: lipocalin mutein SEQ ID NO: 14 (designed binder)
chain: ASDEEIQDVSGTWYLKAMTVDSDCFWIDEVSVTPMTLTTLEGGNLEAKVTMDIFGFWQEVKAVLEKTDEPGKYTADGGKHVAYIIRSHVKDHYIFYSEGECEGFPVPGVWLVGRDPKNNLEALEDFEKAAGARGLSTESILIPRQSETSSPGSAWSHPQFEK
notes: as for B1
As to B11, the EC50 came out at 19.1 nM in assay [4] and 0.25 nM in assay [5]. Further, the IC50 in assay [3] was 3 nM. The values for the Kd in assay [1] and in assay [2] were 16.3 nM and 0.36 nM, respectively. The results for the koff in assay [1] and in assay [2] were 0.0928 s⁻¹ and 0.00102 s⁻¹, respectively. In addition, the kon in assay [1] is 5.68e+06 M⁻¹ s⁻¹; in assay [2], 2.84e+06 M⁻¹ s⁻¹.
